Laboratory results reported in PMC4305620 (FEBS Open Bio, 2014).

Target: the molecule itself
Experiment: SEC

B1: solubilized NH6-Salp15 (natural protein, Ixodes scapularis)
chain: MRGSHHHHHHGSGSGSGIEGRPYNGTGSVAANESGPTKADASTADKDTKKNNVQLRFPNYISNHQKLALKLLKICKDSKSSHNSLSSRSSDVINDKYVDFKNCTFLCKHGNDVNVTLNLPEDTPCGPNGQTCAEKNKCVGHIPGC
Q: Which “stoichiometry N” value does the source give for B1 here?
A: 2
